Laboratory results reported in the supplement of paper PMC8728848.
The list shows a part of the results.

Key:
Assay in all cases: glycan array binding signal (z-score within array); higher = stronger binding
Conditions in all cases: glycan notation: IUPAC condensed, linker removed
[1] = target: Neu5Ac(a2-3)Gal(b1-4)[Fuc(a1-3)]GlcNAc
How it was run: (§1)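 Glycan array data came from 3228 arrays in the Consortium for Functional Glycomics database, and only arrays with an available protein sequence were kept. Glycan names were put into IUPAC-condensed notation, and columns mapping to the same glycan were averaged. The binding signal is a within-array Z-score, averaged across arrays of one protein sequence run at different concentrations or buffers and across linkers. A negative Z-score can be read as non-binding.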

[2] = target: Neu5Ac(a2-3)Gal(b1-4)[Fuc(a1-3)]GlcNAc(b1-3)Gal
How it was run: as §1

[3] = target: Neu5Ac(a2-3)Gal(b1-4)[Fuc(a1-3)]GlcNAc(b1-3)Gal(b1-4)GlcNAc
How it was run: as §1

[4] = target: Neu5Ac(a2-3)Gal(b1-4)[Fuc(a1-3)]GlcNAc(b1-3)Gal(b1-4)[Fuc(a1-3)]GlcNAc(b1-3)Gal(b1-4)[Fuc(a1-3)]GlcNAc
How it was run: as §1

[5] = target: Neu5Ac(a2-3)Gal(b1-4)[Fuc(a1-3)]GlcNAc6S
How it was run: as §1

[6] = target: Neu5Ac(a2-3)Gal6S(b1-4)GlcNAc
How it was run: as §1

[7] = target: Neu5Ac(a2-3)Gal6S(b1-4)[Fuc(a1-3)]GlcNAc
How it was run: as §1

Neu5Ac(a2-3)GalNAc = target: Neu5Ac(a2-3)GalNAc
How it was run: as §1

[8] = target: Neu5Ac(a2-3)GalNAc(b1-4)GlcNAc
How it was run: as §1

[9] = target: Neu5Ac(a2-3)[GalNAc(b1-4)]Gal(b1-4)Glc
How it was run: as §1

[10] = target: Neu5Ac(a2-3)[GalNAc(b1-4)]Gal(b1-4)GlcNAc
How it was run: as §1

[11] = target: Neu5Ac(a2-3)[Neu5Ac(a2-6)]GalNAc
How it was run: as §1

Neu5Ac(a2-6)Gal = target: Neu5Ac(a2-6)Gal
How it was run: as §1

Neu5Ac(a2-6)Gal(b1-4)Glc = target: Neu5Ac(a2-6)Gal(b1-4)Glc
How it was run: as §1

[12] = target: Neu5Ac(a2-6)Gal(b1-4)GlcNAc
How it was run: as §1

[13] = target: Neu5Ac(a2-6)Gal(b1-4)GlcNAc(b1-2)Man(a1-3)[Neu5Ac(a2-6)Gal(b1-4)GlcNAc(b1-2)Man(a1-6)]Man(b1-4)GlcNAc(b1-4)GlcNAc
How it was run: as §1

[14] = target: Neu5Ac(a2-6)Gal(b1-4)GlcNAc(b1-3)Gal(b1-4)GlcNAc
How it was run: as §1

[15] = target: Neu5Ac(a2-6)Gal(b1-4)GlcNAc(b1-3)Gal(b1-4)[Fuc(a1-3)]GlcNAc(b1-3)Gal(b1-4)[Fuc(a1-3)]GlcNAc
How it was run: as §1

[16] = target: Neu5Ac(a2-6)Gal(b1-4)GlcNAc6S
How it was run: as §1

Neu5Ac(a2-6)GalNAc = target: Neu5Ac(a2-6)GalNAc
How it was run: as §1

[17] = target: Neu5Ac(a2-6)GalNAc(b1-4)GlcNAc
How it was run: as §1

Neu5Ac(a2-8)Neu5Ac = target: Neu5Ac(a2-8)Neu5Ac
How it was run: as §1

[18] = target: Neu5Ac(a2-8)Neu5Ac(a2-3)Gal(b1-4)Glc
How it was run: as §1

[19] = target: Neu5Ac(a2-8)Neu5Ac(a2-3)[GalNAc(b1-4)]Gal(b1-4)Glc
How it was run: as §1

[20] = target: Neu5Ac(a2-8)Neu5Ac(a2-8)Neu5Ac
How it was run: as §1

[21] = target: Neu5Ac(a2-8)Neu5Ac(a2-8)Neu5Ac(a2-3)Gal(b1-4)Glc
How it was run: as §1

[22] = target: Neu5Ac(a2-8)Neu5Ac(a2-8)Neu5Ac(a2-3)[GalNAc(b1-4)]Gal(b1-4)Glc
How it was run: as §1

[23] = target: Neu5Ac(a2-8)Neu5Ac(a2-8)Neu5Ac(a2-8)Neu5Ac(a2-3)[GalNAc(b1-4)]Gal(b1-4)Glc
How it was run: as §1

Neu5Ac(b1-6)GalNAc = target: Neu5Ac(b1-6)GalNAc
How it was run: as §1

[24] = target: Neu5Ac(b2-6)Gal(b1-4)GlcNAc
How it was run: as §1

[25] = target: Neu5Ac9Ac(a2-6)Gal(b1-4)GlcNAc
How it was run: as §1

[26] = target: Neu5Gc(a2-3)Gal(b1-3)GlcNAc
How it was run: as §1

[27] = target: Neu5Gc(a2-3)Gal(b1-3)[Fuc(a1-4)]GlcNAc
How it was run: as §1

Neu5Gc(a2-3)Gal(b1-4)Glc = target: Neu5Gc(a2-3)Gal(b1-4)Glc
How it was run: as §1

[28] = target: Neu5Gc(a2-3)Gal(b1-4)GlcNAc
How it was run: as §1

[29] = target: Neu5Gc(a2-3)Gal(b1-4)[Fuc(a1-3)]GlcNAc
How it was run: as §1

[30] = target: Neu5Gc(a2-6)Gal(b1-4)GlcNAc
How it was run: as §1

Neu5Gc(a2-6)GalNAc = target: Neu5Gc(a2-6)GalNAc
How it was run: as §1

B1: AICL (Homo sapiens), Q92478 (protein)
chain: MMTKHKKCFIIVGVLITTNIITLIVKLTRDSQSLCPYDWIGFQNKCYYFSKEEGDWNSSKYNCSTQHADLTIIDNIEEMNFLRRYKCSSDHWIGLKMAKNRTGQWVDGATFTKSFGMRGSEGCAYLSDDGAATARCYTERKWICRKRIH
[1]
  glycan array binding signal (z-score): -0.409
[2]
  glycan array binding signal (z-score): -0.498
[3]
  glycan array binding signal (z-score): 0.187
[4]
  glycan array binding signal (z-score): -0.357
[5]
  glycan array binding signal (z-score): 0.232
[6]
  glycan array binding signal (z-score): -0.142
[7]
  glycan array binding signal (z-score): -0.333
Neu5Ac(a2-3)GalNAc
  glycan array binding signal (z-score): -0.349
[8]
  glycan array binding signal (z-score): -0.335
[9]
  glycan array binding signal (z-score): -0.261
[10]
  glycan array binding signal (z-score): -0.3
[11]
  glycan array binding signal (z-score): 0.036
Neu5Ac(a2-6)Gal
  glycan array binding signal (z-score): -0.391
Neu5Ac(a2-6)Gal(b1-4)Glc
  glycan array binding signal (z-score): -0.359
[12]
  glycan array binding signal (z-score): -0.428
[13]
  glycan array binding signal (z-score): -0.371
[14]
  glycan array binding signal (z-score): -0.504
[15]
  glycan array binding signal (z-score): 0.004
[16]
  glycan array binding signal (z-score): -0.194
Neu5Ac(a2-6)GalNAc
  glycan array binding signal (z-score): -0.363
[17]
  glycan array binding signal (z-score): -0.293
Neu5Ac(a2-8)Neu5Ac
  glycan array binding signal (z-score): 0.384
[18]
  glycan array binding signal (z-score): -0.223
[19]
  glycan array binding signal (z-score): 0.023
[20]
  glycan array binding signal (z-score): 0.668
[21]
  glycan array binding signal (z-score): 0.329
[22]
  glycan array binding signal (z-score): 0.11
[23]
  glycan array binding signal (z-score): 0.188
Neu5Ac(b1-6)GalNAc
  glycan array binding signal (z-score): -0.464
[24]
  glycan array binding signal (z-score): -0.099
[25]
  glycan array binding signal (z-score): -0.182
[26]
  glycan array binding signal (z-score): 0.332
[27]
  glycan array binding signal (z-score): -0.323
Neu5Gc(a2-3)Gal(b1-4)Glc
  glycan array binding signal (z-score): -0.04
[28]
  glycan array binding signal (z-score): 0.329
[29]
  glycan array binding signal (z-score): 0.025
[30]
  glycan array binding signal (z-score): -0.267
Neu5Gc(a2-6)GalNAc
  glycan array binding signal (z-score): -0.482
